# Measurements reported in the RNAGym collection of RNA variant scans (doi:10.7554/elife.90254).
# The source gives no read counts; variants with many changes may rest on few reads.
# B1: LINE1-mini (parent)
# chain: GGCAGAGCUCAACACAGCGUGGCAAAGUGGCUGUGGCUAGACUGCC
# Variants of: B1
# Assay: self-cleavage, relative activity (ratio to wild type); higher = more cleavage; in vitro, sequencing; the parent is a self-cleaving ribozyme
row,Variant,self-cleavage
1,CGCAGAGCUCAACACAGCGUGUCAAAGUGGCUGUGGCUAGACUGUU,0.54
2,CGCAAAGCUCAACAUAGCGUGGCAAAGUUGCUGUGGCUAGACUGCC,0.08
3,CCCAGAGCUCAACACAUCGUGGCAAAGCGGUUGUGGCUGGACUGCC,0.06
4,CGCAGAGCUCAACACAACGUGACAAAGUGGCUGUUGCUAGACUGUC,0.03
5,CGCAGAGCUCAACACAGCGUUGCAAAGUAGCUGUGGUUAGACUGCC,0.01
6,CGCAGAGCUCAACACAGCGUGGCAAAGUGGAAGUGGCUAGCCUGCC,0.01
7,CGCAGAGCUCAACACAGCGUGGCAAAGUGGCUGUGAAUAGACUGCC,0.03
8,CGCAGAGCUCAACACAGCGUGCCAAAGUGUCUGUGGCGAGACUGCU,0.01
9,CGCAGAGCUCAACACAGCGUCGCAAAGUGGCUGUGGCUAGCCUGCC,0.02
10,CGCACAGCUCAACACAGCGUGGCAAAGUGGCUGUAGCUAUACUGCC,0.02
11,CUCAGAGCUCAACACAGCGUGCCAAAGUGGCUGUGGCUAGACUGCC,0.14
12,CGCAGAGCUCAACACAGCGUAGCAAAGUGGCUGAGGCUAGAUUGCC,0.03
13,CGCAGAGCCCAACACAGCGUGGCAAAGUGGCUGUGGCUCGACUGCC,0.02
14,CGCAGAGCUCAAGACAGUGUGGCAAAGUGGCCGUGGCUAGGGUGCC,0
15,CGCAGAGCUCAACACAGCGUGGGAAAGUGACUGUGGCUAGACUGUC,0.07
16,CGCAGAGCUCAACAGAGCGUGGCAAAGUGGCUGUGGAUAGACUGCC,0.02
17,CGCAUAGCUCAACACAGCGUGGCGAAUUAGCUGAGGCUAGACUGCC,0.02
18,CGCAGAGCUCAACAAAGCGUGGCAUAGUGGCUGUGGCUCUACUGCC,0.01
19,CGCAGAGCUCAACACAGCGUGGCAAAGUGGCUGUCGCAAGACUGCC,0.07

row,Variant,self-cleavage
1,CGCAGACCUCAACACCGCGUGGCAAAGUGGCUGUGGCUACACUCCG,0.01
2,CGCAGAGCUCAACACAGCGUGGCAAAGUUGCUGUGGCUAGACAGCC,0.02
3,CGCAGACCUCAACACAGCGUGGCAAAGUCGCUGAGGCUAGACUGCC,0.01
4,CGCAGAGCUCAACACAGCGUGCCAAAGUGGCUGUGGCUAGGCUGCC,0
5,CACAGAGCUCACCACAGCGUGGCAAAGUGGAUGUGGCUAGGCUGCC,0.01
6,CGCAGAGCUCAAUACAGCGUGGCAAAGUGGCUGUGGCAAGACUGCC,0.1
7,CACAGUGCUCGACACAGCGUGGCAAAGUGGCUGUGGCUAGACUGCC,0.01
8,CGCAGAGCUCAACACAGGGUGGCAAAGUGGCUGUGGCAAGACUGGC,0.02
9,CGCAGAGCUCAACACAGCGUGCCAGAGUGGCUGUCGCUAGACUGCC,0.06
10,CGCAGAGCUCAACACACCGUGGGUAAGUGGCUGUGGUUAGAAUCCC,0.01
11,CGCAGAGCGCAACACUGCGUGGCAAAGUGGCUGUAGCUAGACUGCC,0.04
12,CGCAAAGCUCGACACAGCGGGGCAAAGUGGCUGUGGCUAGACUGCC,0
13,CGCAGAGCUCAACACAGCGUGUCAAAGUGGCUGUGGCUAUACUGCC,0.03
14,CGCAUAGCUCAACACAGAGUGGCAAAGUGGCAGUGGCUAGACUGCC,0
15,CGCACAGCUAAACACAGCGUGGCAAAGUGGCUGUGGCUAGACUGCU,0.01
16,CGCAGAGCUCAACACAGUGUGGCAAAGUGGCUGUGGCUAGACUGCU,1.34
17,CGCAGAGCUCAACACAGUGUGGCAAAGUGGCUGUGGCUAGACUGCA,0.47
18,CGCAGAGCUCAACAGAGCGUGGCAAAGUUGCUGUGGCUAGACUGCC,0.01
19,CGCAGACGACAACAAAGCGUGGCAAAGUGGCUGUGGCUAGAGUGCC,0.04

row,Variant,self-cleavage
1,CGCAGAGCCCAACACAGCAUGGCAGAGUGGCUUUGGCUAGACUGCA,0.01
2,CGCAGAGCUCAACAGAGCGUGGCAAAGUGGCUGUGGCUAGAUGGCC,0
3,CGCACAGCUCAACACAGCGUCGCAAAAUGGCUGUGGCCAGACUGCC,0.02
4,CGCAGACCCCAACACAGCGCGGCAAAGUGGCUGUGGCUACACUGCC,0.01
5,CGCACAGCUCAACACAGCGUGGGAAAGUGGCUCUGGCUUGACUGCC,0.01
6,CGCAGAGCUCAACACAGUGUGGUAAAGUGGCUGUGGCUAGACUGCG,0.21
7,CGCAGAACUCAACACAGCGUGGCAAAGUGGCUGUAGCUAGACUGCC,0.02
8,CGCAGAGCUCAACACAGCGUGGUAAAGUGGCUAUGGCUAGACUGCC,0.15
9,CGCAGAACUAAACACAGCGUGGCAAAGUGGCUGUGGCUAGACUUGC,0
10,CUCAGAGCUCAACACUGCGUUGCAAAGUGGCUGUGGCUAGACUGCC,0.02
11,CGCAGACCUCAACACAGCGUGGCAAAGUGCCUGCGCAUAGACUGCC,0.01
12,CUCAGAGCUCAACACAGCGGGGCAAAGUGACUGUGGCUAGACUGCC,0.02
13,CACGGAGCUCAACACUGCGUGGCAAAGUGGGUGUGGCUAGACUUCC,0.02
14,CGCAGAGCUCAACACAGCGUGGCAAAGUGGUUGUGGCUAGACUGCA,0.06
15,CGCAGAGCUCAACACAGCGAUGCAAAGUGGCUGUGGCUAGACUGCC,0.03
16,CGCAGAGCUCAACAAAGCGUGGCAAAGUGGCUGUGGCUAGAUAGCC,0.01
17,CGCAGAGCUCAACACAGGGUGGCAAACUGGCUGUGGCUAGACUGCC,0.1
18,CGCAGAGCUCAACACAGCGUGGAAAAGUGGCUGAGGCUAGAUUGCC,0.02
